The record followed here is ChEMBL document CHEMBL4888484, “Replenishing the malaria drug discovery pipeline: Screening and hit evaluation of the MMV Hit Generation Library 1 (HGL1) against asexual blood stage Plasmodium falciparum ,using a nano luciferase reporter read-out” (2022).

Broadly, the % Inhibition is the drop in the measured response relative to a control, in per cent.

The structures appear in SMILES notation. The campaign covered roughly 150,000 compounds. About 540 (0.36%) showed an effect of 50% or more. The list shows a part of the results.

This assay relates to Plasmodium falciparum. Put plainly: Primary screen in NF54 nanoGlo assay, in single point, at 2uM, 72h; a lower Z score goes with more inhibition. The class given is functional, Erythrocyte. As to conditions: timepoint 72 hour.
On to `CC[C@](C)(C#N)C(=O)Nc1ccc(F)cc1`, for which the “% Inhibition” value is recorded as 0% and the Z score stood at 0.01.
For the compound `CC(C)COc1cncc(N2CC[C@H](N3CC=CC3)C2)n1`, the “% Inhibition” value came to 5% and the Z score is recorded as -0.87.
In the same order, the values of `CCN(Cc1noc(C)n1)C(=O)Cc1ccncc1` are -7% and 0.64.
In the same order, the values of `Cc1ccc(C(C)(C)NC(=O)CCOc2ccccc2)cn1` are -8% and 0.8.
In the same order, the values of `Cc1nc(N[C@H]2CCCc3ccccc32)c2cccnc2n1` are -12% and 2.24.
Take `O=C(NCc1sc2ccccc2c1Cl)C1CCOCC1`: the “% Inhibition” value was -9% and the Z score came to 1.26.
Regarding `O=C(C[C@H]1CCS(=O)(=O)C1)N1CCN(c2ncccn2)CC1`, the “% Inhibition” value is recorded as -11% and the Z score stood at 2.29.
In the same order, the values of `CC[C@H](c1ccccc1)c1nc(-c2cccc(-c3ccnn3CC)c2)no1` are -1% and 0.15.
On the same counts, the results for `Cn1cccc1C(=O)N1CCc2[nH]c3ccc(F)cc3c2C1` are -5% and 0.69.
Turning to `CC(C)CN(CC(F)(F)F)C(=O)CN(C)C(=O)[C@H](C)n1cccn1`, the “% Inhibition” value was -1% and the Z score was found to be 0.1.
With `Cc1ccc(CNC(=O)c2ccc(OCc3nnc(C(=O)Nc4ccccc4F)s3)cc2)o1`, the “% Inhibition” value is on record as -13% and the Z score turned out to be 2.37.
On the same counts, the results for `CC(C)c1nnc(NC(=O)c2cnc(C(C)C)s2)[nH]1` are -10% and 1.35.
In the same order, the values of `Cc1cc(F)cc(C(=O)NCc2ccccc2CN2CC[C@H](O)C2)c1` are -2% and 0.25.
On the same counts, the results for `COCC(O)CN(Cc1cccc(Cl)c1)CC1CC(c2ccccc2F)=NO1` (configuration not stated) are -10% and 1.04.
As for `CCc1ccc(C(=O)N[C@@H]2COCC[C@@H]2OCCO)s1`, the “% Inhibition” value is listed as -11% and the Z score turned out to be 1.41.
As for `O=C(NC[C@H](O)c1ccc(Cl)s1)c1ccsc1`, the “% Inhibition” value was 32% and the Z score was -0.18.
On the same counts, the results for `COCCc1noc([C@@H]2CCCN2Cc2cc3c(cc2C)OCO3)n1` are -10% and 1.91.
Take `O=C(CC1(CN2Cc3ccccc3C2=O)CCCCC1)Nc1nc[nH]n1`: the “% Inhibition” value is given as -5% and the Z score is on record as 0.64.
On the same counts, the results for `Cn1cc(C(=O)NC[C@H]2Cc3ccccc3CO2)nn1` are 14% and -1.64.
In the same order, the values of `Cc1ccc(Br)cc1C(=O)NS(=O)(=O)CC1CC1` are -11% and 1.1.
On the same counts, the results for `Cc1oc(CNC(=O)C(C)(C)C)nc1C(=O)N1CCC(C)CC1` are -7% and 0.88.
Take `CCCN1C[C@@H](NC(=O)NCCNC(=O)c2ccccc2Cl)CC1=O`: the “% Inhibition” value was -11% and the Z score is 1.56.
On the same counts, the results for `O=C1NCC(=O)N2CCN(C(=O)NCCCc3ccccc3F)C[C@@H]12` are 0% and -0.02.
Take `O=C(NCCOCC1CC1)C(=O)Nc1cc(F)c(F)c(F)c1`: the “% Inhibition” value is reported as -6% and the Z score worked out at 1.07.
Consider `CCn1nnc2cc(C(=O)N3CC(C)OC(C)C3)ccc21` (configuration not stated), for which the “% Inhibition” value was -9% and the Z score is reported as 1.74.
In the case of `O=C1CCC(C(=O)NC(Cc2ccccc2)[C@H]2C[C@H](O)C2)=NN1` (some centres not stated), the “% Inhibition” value was -3% and the Z score is given as 0.6.
Take `CCCc1noc(CCCC(=O)N2CCN(c3ccncc3Cl)CC2)n1`: the “% Inhibition” value is given as -10% and the Z score is given as 1.49.
In the same order, the values of `CCCn1c(=O)cc(C(C)C)c2ccc(OCC(=O)N3CCOCC3)cc21` are -13% and 1.6.
In the same order, the values of `O=C(Cc1ccc(Cl)cc1)N1CCN(c2cccnc2)C(=O)C1` are 13% and -1.63.
Turning to `CC(C)c1ccc(S(=O)(=O)NCCc2n[nH]c(Cc3cccc(F)c3)n2)cc1`, the “% Inhibition” value is 2% and the Z score is reported as -0.43.
In the same order, the values of `Cc1ccc2nc(N3CN(Cc4ccccc4)CN(c4nc5ccc(C)cc5s4)C3)sc2c1` are -10% and 1.5.
In the case of `CCc1ccc(/C=C/c2c[nH]c3ccccc23)[n+](CC)c1`, the “% Inhibition” value came to 93% and the Z score is -8.52.
On to `Cc1nc(NC(=O)N(C)[C@@H](C)CO)sc1C`, for which the “% Inhibition” value is -16% and the Z score is given as 2.02.
In the case of `Fc1cc(-c2ccc(N3CCCC3)nn2)c2ncccc2c1`, the “% Inhibition” value amounted to 12% and the Z score is on record as -2.38.
As to `Cc1cc(Cl)c(C(=O)N2CCC(C3CC(N)CCO3)CC2)cc1C` (configuration not stated), the “% Inhibition” value is reported as -7% and the Z score was determined as 0.81.
In the same order, the values of `Cc1cnn(CCNCC(=O)NCc2ccc3c(c2)OCO3)c1` are -3% and 0.52.
For the compound `CC[C@](C)(NCCCc1ccccc1C)C(N)=O`, the “% Inhibition” value is -11% and the Z score worked out at 1.45.
Regarding `CCC(N)C(=O)NC(CC)c1ccc(C)cc1` (configuration not stated), the “% Inhibition” value is -9% and the Z score was 0.9.
Take `O=C1CCc2cc(-c3cccc4cccnc34)ccc21`: the “% Inhibition” value is recorded as -15% and the Z score is given as 1.78.
In the same order, the values of `Cc1nn2c(=O)[nH]ncc2c1-c1ccc(C(N)=O)cc1` are -1% and 0.15.
In the same order, the values of `c1ccc(-c2cc(CN3CCCCC3)no2)cc1` are -3% and 0.47.
In the same order, the values of `COc1ccc(Cn2nccc2NC(=O)N[C@H]2CCOC2)c(OC)c1OC` are -3% and 0.46.
Take `Cc1cc(Br)cnc1N1CCC2(CC1)OC[C@H](C)O2`: the “% Inhibition” value was 5% and the Z score is listed as -0.45.
Take `CC(C)c1noc(CN2CCCN(Cc3ccc(F)cc3)[C@H](C(C)C)C2)n1`: the “% Inhibition” value is given as -10% and the Z score is on record as 1.42.
As for `COCc1cc(NCc2cccnc2N(C)Cc2ccccc2)ncn1`, the “% Inhibition” value is -2% and the Z score is given as 0.34.
`O=C(Cc1ccc(F)cc1F)NCCn1nc(C2CC2)ccc1=O`: the “% Inhibition” value was 5% and the Z score was -0.67.
In the same order, the values of `COCc1nc(CNC(=O)Cc2csc(C)n2)no1` are -14% and 2.76.
As for `c1cnc(N2CCN(C3CCN(C[C@H]4CCCCO4)CC3)CC2)nc1`, the “% Inhibition” value is -2% and the Z score is on record as 0.27.
As to `CCn1nnc(C)c1CN1CCC2(CC1)OCCc1ccsc12`, the “% Inhibition” value amounted to 30% and the Z score is listed as -3.43.
As to `Cc1cc(NC(=O)NC2CCOCC2)n(CC(C)C)n1`, the “% Inhibition” value is given as 2% and the Z score was -0.22.
On the same counts, the results for `COc1ccccc1-c1c(OC)nsc1OC` are 10% and -1.83.
On the same counts, the results for `COc1ccc2c(c1)C(C(=O)NC(c1ccccc1)c1nnn[nH]1)CCC2` (configuration not stated) are -15% and 2.23.
In the case of `C[C@@H](CCC(=O)NC1Cc2ccccc2C1)N1CCOCC1`, the “% Inhibition” value is listed as -9% and the Z score is on record as 1.42.
On the same counts, the results for `COC(=O)C1=C(C(=O)OC)SC(=C2C(=S)C(C)(C)N(C(=O)CCC3CCCCC3)c3cc(C)ccc32)S1` are 1% and -0.12.
For the compound `CC(=O)Nc1ccc2c(c1)CN(C(=O)c1c(F)cccc1Cl)[C@H](C(=O)N(C)C)C2`, the “% Inhibition” value is given as -5% and the Z score worked out at 0.78.
In the same order, the values of `N#Cc1ccc(N2CC[S+]([O-])CC2)cn1` are -3% and 0.65.
In the same order, the values of `CN(CCC#N)C(=O)C(C)(C)c1ccccc1` are -11% and 1.61.
For the compound `NC(=O)Cc1n[nH]c(-c2ccccc2N2CCOCC2)n1`, the “% Inhibition” value is given as -2% and the Z score stood at 0.2.
On the same counts, the results for `CC(C)(C)c1ncc(C(=O)N[C@H](c2ccccc2)c2nnn[nH]2)cn1` are 2% and -0.3.
On the same counts, the results for `COc1ccc(C(=O)N(c2cccc(C(F)(F)F)c2)C(C)C)nn1` are -7% and 1.25.
In the same order, the values of `CCN(Cc1cncs1)[C@@H](C)CN(C)C` are -1% and 0.13.
Take `CC(=O)N1CCC(C(=O)N2CC(S(=O)(=O)CC(C)C)C2)CC1`: the “% Inhibition” value is reported as -18% and the Z score amounted to 2.3.
On the same counts, the results for `CC[C@H](C)Oc1cc(CNC(=O)C2=COCCC2)ccn1` are -12% and 1.54.
On the same counts, the results for `COCCCN1CC(=O)N[C@@H]2CN(Cc3ccccn3)CC[C@@H]2OCc2cccc(c2)Oc2cc(ccc2OC)C1` are 2% and -0.32.
With `CCn1cc(-c2nc(-c3ccccc3C)no2)c(=O)c2cc(F)c(N3CCOCC3)cc21`, the “% Inhibition” value was determined as 40% and the Z score is reported as -3.29.
On the same counts, the results for `CCN(C[C@H]1CCCCO1)C(=O)Cc1c(C)n[nH]c1C` are -12% and 1.16.
`CN(Cc1ccncc1)S(=O)(=O)[C@H]1CCCN(C(=O)c2cccc(Cl)c2)C1`: the “% Inhibition” value is recorded as -14% and the Z score amounted to 2.13.
On the same counts, the results for `CCOC(=O)[C@@H](c1ccccc1)N1CC(C(=O)NC)C1` are -11% and 1.03.
On the same counts, the results for `CC1CCC(C(=O)NCC2CCCCC2OCC(F)(F)F)O1` (configuration not stated) are 1% and -0.12.
Turning to `CC[C@H](NC(=O)c1cnc(C)nc1)c1ccc(C)cc1`, the “% Inhibition” value is listed as -1% and the Z score is recorded as 0.22.
Regarding `COc1ccc2c(c1)N1CCN(CC(=O)N3CCOCC3)CC1C(C(=O)NCCc1ccccn1)C2` (configuration not stated), the “% Inhibition” value is given as -14% and the Z score was 1.32.
On the same counts, the results for `Cc1ccc(CC(=O)NCCCN(C)C)cc1C` are -7% and 0.98.
Consider `CC(C)c1nccn1CCNc1cnc2ccccc2n1`, for which the “% Inhibition” value was -6% and the Z score is given as 1.07.
As for `CC(C)[C@H](Oc1ccccc1)C(=O)N1CCC(n2cc(CN)nn2)CC1`, the “% Inhibition” value was found to be 7% and the Z score is -0.96.
On the same counts, the results for `C[C@@H]1CN(C[C@@H]2CN(C(=O)c3onc4c3CCCC4)C[C@@H]2CO)C[C@H](C)O1` are -10% and 1.83.
As to `O=C1C[C@@H](C(=O)Nc2ccccc2)NC(N2CCN(Cc3ccccc3)CC2)=N1`, the “% Inhibition” value was -8% and the Z score was 1.19.
Turning to `CN(Cc1ccccc1)C(=O)c1snc2c(=O)n(Cc3ccccc3)c(=O)[nH]c12`, the “% Inhibition” value is recorded as -10% and the Z score was determined as 1.71.
On the same counts, the results for `O=C(NC[C@H]1O[C@@H](CO)[C@@H](O)[C@H]1N1CCN(c2ccc(F)cc2)CC1)c1ccc(F)c(Cl)c1` are -8% and 1.16.
On the same counts, the results for `COCCOc1ccccc1NC(=O)N1Cc2nc(C)n(C)c(=O)c2C1` are -7% and 1.42.
On the same counts, the results for `Cc1cc(S(=O)(=O)Nc2nonc2C)sc1C` are -5% and 0.58.
Regarding `Cc1cc(S(=O)(=O)N2CC[C@H](O)CC(C)(C)C2)c(C)s1`, the “% Inhibition” value is on record as -4% and the Z score was 0.77.
On the same counts, the results for `CCN(C(=O)CN1CCCC2(CC2)S1(=O)=O)c1cccnc1C` are -2% and 0.37.
In the same order, the values of `Cc1cc(=O)[nH]c(NCCNC(=O)[C@H]2CCC[C@H](O)C2)n1` are -5% and 1.01.
On the same counts, the results for `O=S(=O)(c1ccccc1)N1CCN(c2nc3ccccc3c3nnc(-c4ccco4)n23)CC1` are -13% and 1.47.
With `O=C(CC1CC2CCC1C2)NC1CCNC1=O` (configuration not stated), the “% Inhibition” value was 16% and the Z score is on record as -1.82.
Regarding `Cc1cccc(N([C@H]2CCS(=O)(=O)C2)S(C)(=O)=O)c1`, the “% Inhibition” value was -39% and the Z score is on record as 4.58.
